In paper PMC9911399, “Two distinct binding modes provide the RNA-binding protein RbFox with extraordinary sequence specificity”:
Changes are numbered by the printed parent chain; changes in the protein carry UniProt numbers. Some of the results follow.

T1: RBFOX1 RRM RbFoxmut (Fox-RRM*) (Homo sapiens, UniProt Q9NWB1 109-208, R118D;E147R;N151S;E152T)
T1 sequence: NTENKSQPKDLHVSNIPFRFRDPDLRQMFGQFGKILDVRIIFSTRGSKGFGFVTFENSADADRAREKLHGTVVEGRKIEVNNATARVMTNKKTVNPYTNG

B1: CAGGGCG (DNA:RNA)
RNA: GGGAGACCGGAAUUCAGAUUGUCCCAGGGCGUUAAAUCCCGUCGUAGCCACCA
DNA 1: CAATCTGAATTCCGGTCTCCC
DNA 2: TGGTGGCTACGACGGGATT
B2: GACCGAC (DNA:RNA)
RNA: B1 RNA with C25G, G27C, G28C, C30A, G31C
DNA 1: CAATCTGAATTCCGGTCTCCC
DNA 2: TGGTGGCTACGACGGGATT
B3: GCCUUAC (DNA:RNA)
RNA: GGGAGACCGGAAUUCAGAUUGUCCGCCUUACUUAAAUCCCGUCGUAGCCACCA
DNA 1: CAATCTGAATTCCGGTCTCCC
DNA 2: TGGTGGCTACGACGGGATT
B4: CUCCUGA (DNA:RNA)
RNA: B3 RNA with G25C, C26U, U28C, A30G, C31A
DNA 1: CAATCTGAATTCCGGTCTCCC
DNA 2: TGGTGGCTACGACGGGATT
B5: UCAGAAU (DNA:RNA)
RNA: B3 RNA with G25U, C27A, U28G, U29A, C31U
DNA 1: CAATCTGAATTCCGGTCTCCC
DNA 2: TGGTGGCTACGACGGGATT
B6: GUGCCGG (DNA:RNA)
RNA: B1 RNA with C25G, A26U, G28C, G29C, C30G
DNA 1: CAATCTGAATTCCGGTCTCCC
DNA 2: TGGTGGCTACGACGGGATT
B7: GCUUGUC (DNA:RNA)
RNA: B3 RNA with C27U, U29G, A30U
DNA 1: CAATCTGAATTCCGGTCTCCC
DNA 2: TGGTGGCTACGACGGGATT
B8: CUUGGUC (DNA:RNA)
RNA: B1 RNA with A26U, G27U, C30U, G31C
DNA 1: CAATCTGAATTCCGGTCTCCC
DNA 2: TGGTGGCTACGACGGGATT
B9: UGCGGCC (DNA:RNA)
RNA: B1 RNA with C25U, A26G, G27C, G31C
DNA 1: CAATCTGAATTCCGGTCTCCC
DNA 2: TGGTGGCTACGACGGGATT
B10: GGCAAGG (DNA:RNA)
RNA: B3 RNA with C26G, U28A, U29A, A30G, C31G
DNA 1: CAATCTGAATTCCGGTCTCCC
DNA 2: TGGTGGCTACGACGGGATT
B11: AAACAAG (DNA:RNA)
RNA: B1 RNA with C25A, G27A, G28C, G29A, C30A
DNA 1: CAATCTGAATTCCGGTCTCCC
DNA 2: TGGTGGCTACGACGGGATT
B12: UCUACUA (DNA:RNA)
RNA: B3 RNA with G25U, C27U, U28A, U29C, A30U, C31A
DNA 1: CAATCTGAATTCCGGTCTCCC
DNA 2: TGGTGGCTACGACGGGATT
B13: UGCUCUU (DNA:RNA)
RNA: B3 RNA with G25U, C26G, U29C, A30U, C31U
DNA 1: CAATCTGAATTCCGGTCTCCC
DNA 2: TGGTGGCTACGACGGGATT
B14: GGUACAA (DNA:RNA)
RNA: B3 RNA with C26G, C27U, U28A, U29C, C31A
DNA 1: CAATCTGAATTCCGGTCTCCC
DNA 2: TGGTGGCTACGACGGGATT
B15: UACUACA (DNA:RNA)
RNA: B1 RNA with C25U, G27C, G28U, G29A, G31A
DNA 1: CAATCTGAATTCCGGTCTCCC
DNA 2: TGGTGGCTACGACGGGATT
B16: CCUUACG (DNA:RNA)
RNA: B1 RNA with A26C, G27U, G28U, G29A
DNA 1: CAATCTGAATTCCGGTCTCCC
DNA 2: TGGTGGCTACGACGGGATT
B17: UAGGCAG (DNA:RNA)
RNA: B1 RNA with C25U, G29C, C30A
DNA 1: CAATCTGAATTCCGGTCTCCC
DNA 2: TGGTGGCTACGACGGGATT
B18: AUAUGCC (DNA:RNA)
RNA: B1 RNA with C25A, A26U, G27A, G28U, G31C
DNA 1: CAATCTGAATTCCGGTCTCCC
DNA 2: TGGTGGCTACGACGGGATT
B19: UGUUUAG (DNA:RNA)
RNA: B3 RNA with G25U, C26G, C27U, C31G
DNA 1: CAATCTGAATTCCGGTCTCCC
DNA 2: TGGTGGCTACGACGGGATT
B20: AACACCA (DNA:RNA)
RNA: B1 RNA with C25A, G27C, G28A, G29C, G31A
DNA 1: CAATCTGAATTCCGGTCTCCC
DNA 2: TGGTGGCTACGACGGGATT

Target: T1, RBFOX1 RRM RbFoxmut (Fox-RRM*)
Experiment: EMSA; HiTS-Eq, 1 nM pool, 10 min; buffer printed only for the single-RNA assays: 10 mM Tris pH 7.5, 150 mM NaCl, 3.4 mM EDTA, 0.001% NP-40, 30 C
Conditions: tags: His6 N-terminal (pET28a); label: 5' 32P
Outline: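 Purified RbFox RRM (wild type or mutant) was equilibrated for 10 min in 50 µL with 1 nM of a 5′-radiolabelled pool of RNA with 7 randomized nucleotides, its flanks annealed to DNA oligonucleotides, across increasing protein concentrations. Free RNA was separated by 8% native PAGE, excised, reverse-transcribed, PCR-barcoded and sequenced on an Illumina HiSeq 2500. Relative association constants came from read-count changes of each variant against the control reaction, normalised to the cognate motif.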

| Binder | binding signal |
| --- | --- |
| B1 | 0.123 KA relative to UGCAUGU |
| B2 | 0.113 KA relative to UGCAUGU |
| B3 | 0.0971 KA relative to UGCAUGU |
| B4 | 0.0832 KA relative to UGCAUGU |
| B5 | 0.104 KA relative to UGCAUGU |
| B6 | 0.0871 KA relative to UGCAUGU |
| B7 | 0.248 KA relative to UGCAUGU |
| B8 | 0.173 KA relative to UGCAUGU |
| B9 | 0.294 KA relative to UGCAUGU |
| B10 | 0.074 KA relative to UGCAUGU |
| B11 | 0.0927 KA relative to UGCAUGU |
| B12 | 0.112 KA relative to UGCAUGU |
| B13 | 0.0655 KA relative to UGCAUGU |
| B14 | 0.0729 KA relative to UGCAUGU |
| B15 | 0.139 KA relative to UGCAUGU |
| B16 | 0.121 KA relative to UGCAUGU |
| B17 | 0.0736 KA relative to UGCAUGU |
| B18 | 0.223 KA relative to UGCAUGU |
| B19 | 0.125 KA relative to UGCAUGU |
| B20 | 0.115 KA relative to UGCAUGU |
